One experiment concerns the target MOR (Rattus norvegicus, UniProt P33535). The experiment in a line: MOR | EC50, nM. Set-up: expressed in transfected cells; host or cells: C6 rat glioma cells (C6-MOR), stably transfected. An excerpt:
(§1) Table printed on a drawing sheet, FIGURE 5

A further experiment deals with DOR (Rattus norvegicus, UniProt P33533). Briefly: DOR | EC50. Set-up: expressed in transfected cells; host or cells: C6 rat glioma cells (C6-DOR), stably transfected.
Source text: as §1
Head of the field: DOR | EC50

For experiment [1], the target named is T1, kappa-opioid receptor (KOR) (Homo sapiens, UniProt P41145).
T1 construct: expressed in transfected cells
The experiment in a line: Ki, nM | (KOR). An excerpt: Table printed on a drawing sheet, FIGURE 4
Head of the field: Ki, nM | (KOR)
First copying reader's note: Each result cell holds the value together with its ± error.

Numbered stars: 1 amine (or outer) side, 2 acyl side, 3 side chain; on linkers, the order of the positions; unused ones are H or OH. Bridge positions count the residues as written; N and C are the ends. Square brackets hold non-standard residues; d marks the D form. Peptide text beside a SMILES is read from it. Dmt = Cc1cc(O)cc(C)c1C[C@H](N)C(=O)O; dPen = CC(C)(S)[C@@H](N)C(=O)O; Aic = NC1(C(=O)O)Cc2ccccc2C1; CH2CH2 = C(C[*:2])[*:1]

This note sets out measurements from patent publication US9045526B2 (THE REGENTS OF THE UNIVERSITY OF MICHIGAN, priority 2011, dated 2015).

By EC50 is commonly meant the concentration that produces a half-maximal response. Read a high EC50 as lower potency in that assay. The Ki is the dissociation constant of the complex between target and ligand, obtained from inhibition or displacement.

T1 sequence (P41145 whole entry, looked up): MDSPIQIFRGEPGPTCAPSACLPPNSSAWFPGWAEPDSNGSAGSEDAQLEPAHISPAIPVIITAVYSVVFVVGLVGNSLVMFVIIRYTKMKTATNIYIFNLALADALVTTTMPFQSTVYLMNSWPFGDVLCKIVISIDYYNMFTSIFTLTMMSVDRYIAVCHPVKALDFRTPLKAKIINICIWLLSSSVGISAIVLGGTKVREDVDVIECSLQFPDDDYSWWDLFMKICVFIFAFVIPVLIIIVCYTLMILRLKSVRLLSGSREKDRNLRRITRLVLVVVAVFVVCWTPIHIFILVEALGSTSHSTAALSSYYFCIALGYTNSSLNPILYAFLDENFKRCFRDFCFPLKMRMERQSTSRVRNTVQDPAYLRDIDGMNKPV
Sequence of DOR (P33533 whole entry, looked up): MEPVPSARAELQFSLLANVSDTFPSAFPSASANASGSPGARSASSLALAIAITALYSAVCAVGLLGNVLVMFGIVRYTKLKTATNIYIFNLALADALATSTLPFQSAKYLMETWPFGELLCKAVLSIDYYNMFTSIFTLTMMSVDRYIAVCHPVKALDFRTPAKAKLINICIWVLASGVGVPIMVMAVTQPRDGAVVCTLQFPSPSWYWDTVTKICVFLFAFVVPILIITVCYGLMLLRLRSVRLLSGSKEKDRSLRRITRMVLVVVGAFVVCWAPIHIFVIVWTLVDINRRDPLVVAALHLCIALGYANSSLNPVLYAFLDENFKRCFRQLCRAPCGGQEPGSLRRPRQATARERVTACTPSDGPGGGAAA
Sequence of MOR (P33535 whole entry, looked up): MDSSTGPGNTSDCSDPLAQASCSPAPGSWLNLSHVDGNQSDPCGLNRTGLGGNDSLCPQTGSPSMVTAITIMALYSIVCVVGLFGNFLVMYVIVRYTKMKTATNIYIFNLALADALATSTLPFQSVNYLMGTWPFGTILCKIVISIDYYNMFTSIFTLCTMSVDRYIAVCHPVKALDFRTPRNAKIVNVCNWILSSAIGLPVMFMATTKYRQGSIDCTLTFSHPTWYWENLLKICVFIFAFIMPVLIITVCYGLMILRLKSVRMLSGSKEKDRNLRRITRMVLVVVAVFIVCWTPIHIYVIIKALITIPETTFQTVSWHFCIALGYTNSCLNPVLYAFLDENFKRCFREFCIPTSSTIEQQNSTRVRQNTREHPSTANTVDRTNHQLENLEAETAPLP

With `Cc1cc(O)cc(C)c1C[C@H](N)C(=O)N[C@@H]1CSCCSC(C)(C)[C@H](C(=O)N[C@@H](CO)C(N)=O)NC(=O)C2(Cc3ccccc3C2)NC1=O` [VRP-19] (H-[Dmt][dC][Aic][dPen]S-NH2; linker 2-4 via CH2CH2), the concentration giving a half-maximal response (EC50) was 6.64 ± 4.8 nM at MOR and 22.4 ± 12.7 nM on DOR.

`Cc1cc(O)cc(C)c1C[C@H](N)C(=O)N[C@@H]1CSCCSC(C)(C)[C@H](C(=O)N[C@@H](CCCNC(=N)N)C(N)=O)NC(=O)C2(Cc3ccccc3C2)NC1=O` [VRP-24] (H-[Dmt][dC][Aic][dPen]R-NH2; linker 2-4 via CH2CH2) came in with an inhibition constant (Ki) in experiment [1] of 65.3 ± 5.8 nM.
